Test results published in ChEMBL document CHEMBL4888484, “Replenishing the malaria drug discovery pipeline: Screening and hit evaluation of the MMV Hit Generation Library 1 (HGL1) against asexual blood stage Plasmodium falciparum ,using a nano luciferase reporter read-out” (2022).
In all, about 150,000 compounds went through this assay and about 540 (0.36%) showed an effect of 50% or more. The list shows a part of the results.

system: Plasmodium falciparum; experiment: Primary screen in NF54 nanoGlo assay, in single point, at 2uM, 72h; a lower Z score goes with more inhibition; type: functional, Erythrocyte; settings: timepoint 72 hour

Row | SMILES | % Inhibition [%] | Z score
1 | O=C(NCc1nc(-c2ncccn2)no1)[C@H]1CCCN(C2CCCC2)C1 | -1 | 0.16
2 | Cc1cc(C(=O)Cn2cnc(C#N)n2)c(C)n1-c1cccc(S(=O)(=O)N2CCOCC2)c1 | -17 | 2.46
3 | O=C(Nc1ccc2c(c1)OCO2)c1cc(Cl)c2c(c1)OCCCO2 | -13 | 1.73
4 | Cc1nc(Oc2cccc3c2OC(C)(C)C3)sc1C(=O)O | -7 | 0.99
5 | Cc1nnc(O)nc1Nc1cccc(Br)c1 | -4 | 0.59
6 | N[C@H]1CCN(C(=O)c2ccccc2C(=O)c2ccc(F)cc2)C1 | -2 | 0.23
7 | Cc1cc(N2CCN([C@H]3CCS(=O)(=O)C3)CC2)n2nc(C)cc2n1 | -8 | 1.03
8 | Cc1ccc(C(=O)NCc2ccnc(-n3ccnc3C)c2)s1 | -10 | 1.4
9 | Cc1c(CCNC(=O)N2CCC[C@H](O)C2)c2cccc3c2n1CCC3 | -6 | 0.99
10 | Cn1ncc(C2CCC2)c1CNc1ncnc2ccsc12 | -4 | 0.89
11 | CC[C@@H](C(=O)NC)n1ccc2cc(S(=O)(=O)N3CCCCC3)ccc21 | 41 | -5.88
12 | C=C(C)CN(CC)C(=O)C(C)NCC1CN(C)CCO1 (stereo not drawn) | -4 | 0.49
13 | O=C(NCc1cc2n(n1)CCNC2)c1cc(Cl)c[nH]1 | -13 | 1.52
14 | Cn1nncc1NC(=O)c1nnc(C(C)(C)C)s1 | 6 | -0.76
15 | Cc1c(Cl)cccc1S(=O)(=O)N1CCN(C)Cc2ccccc21 | -3 | 0.48
16 | Cc1nc2cc(Cc3ncnn3CC(F)(F)F)ccc2[nH]1 | -12 | 1.59
17 | CC(=O)N1CCC(C(=O)Nc2ccc(Nc3ccccc3)cc2)CC1 | -6 | 0.91
18 | CC(C)Cn1ccnc1NC(=O)c1ccc(CCN(C)C)cc1 | -7 | 0.85
19 | Cc1ccc(CS(=O)(=O)N2CCC3CCN(C)CC32)c(F)c1 (stereo not drawn) | -7 | 1.13
20 | COc1ccc(OCc2nc(C(=O)N[C@H]3CCNC3=O)co2)cc1 | 9 | -1.53
21 | CC(C)Cn1c(=O)c(-c2ccc(C(=O)N3CCN(c4ccccc4)CC3)cc2)nc2ccccc21 | 11 | -1.11
22 | CC1CC1C(=O)N1CCCC(CN2CCCCCC2)C1 (stereo not drawn) | -10 | 1.25
23 | CCn1ncc(-c2ccnc3cc(C(=O)Nc4cccc(Cl)c4C)nn23)c1C | 27 | -3.67
24 | CC(C(=O)O)N1CCOC(c2ccsc2)C1 (stereo not drawn) | -10 | 1.1
